This note sets out measurements from the supplement of paper PMC9513381.

Recombinant human monoclonal antibodies (heavy:light variable regions). ELISA EC50 on the named antigen, from 10 µg/ml down; IC50 / IC90 against spike pseudovirus on 293T-ACE2 cells, 48 h; lower = stronger. Calls: IC50 above 1,000 ng/ml = non-neutralizing; EC50 above 1,000 ng/ml = non-binder. The source prints 1000 for neutralization that was not reached; it is given as >1000 ng/ml. Only binders of the Wuhan-Hu-1 domain have neutralization values. Some results are limits rather than exact numbers.

The chains are these.
B1: B1120 (protein)
chain 1: EVQLVESGGGLVQPGGSLRLSCAASGFTFSSDDMHWVRQVTGKGLEWVSGIGTNSDKYYAGSVKGRFTIFREDAKNSLYLQMNSLRAEDSALYYCTRGVQVVRGVKFYYSMDVWGKGTTVTVS
chain 2: DIQMTQSPSSLSASVGDRITITCRASQTISSYLNWYQQKPGKAPKLLIYAASSLQSGVPSRFSGSGSGTDFTLTISSLQPEDFATYYCQQSYSNPPESSFGQGTKLEIK
B2: B2056 (protein)
chain 1: EVQLVQSGAEVKKPGESLKISCQGSGHIFTRYWIAWVRQMPGKGLEYMGIIYPPDSDTTYSPSFQGQVTISADKSISTAFLQWSSLKASDTAIYYCATLPRGPKSGDPFDIWGQGTMVTVSS
chain 2: DIQLTQSPSSLSASVGDRVTITCRASESISSYLNWYQQKPGKAPELLIYAASSLQSGVPSRFSGSGSGTDFTLTISSLQPEDFATYYCQQSYSTPPTFGQGTKLEIK
B3: B2052 (protein)
chain 1: EVQLVQSGAEVKKPGESLRISCKGSGYSFPSYWITWVRQMPGKGLEWMGRIDPSDSYTDYSPSFQGHVTISVDKSINTAYLQWSSLKPSDTAKYYCARDQQHLLTFTGMDVWGQGTTVTVSS
chain 2: DIQMTQSPSTLSASVGDRVTITCRASQSISSWLAWYQQKPGKAPKLLMYKASTLESGVPSRFSGSGSGTEFTLTISSLQPDDFATYYCQHYNAISRTFGQGTKVEIK
B4: B1121 (protein)
chain 1: EVQLVESGGGLIQPGGSLRLSCAASGIIVSSNYMTWVRQAPGKGLECVSLIYPGGSTFYPDSVKGRFTISRDNSKNILYLQMDSLRAEDTAVYYCARSYVDYYMDVWGKGTTVTVSS
chain 2: EIVMTQSPATLSVSPGERATLSCRASQSVSSNLAWYQQKPGQAPRLLIYGASTRATGIPARFSGSGSGTEFTLTISSLQSEDFAVYYCQHYNNWWTFGQGTKVEIK
B5: B2055 (protein)
chain 1: QVQLQESGPGLVKPSQTLSLTCTVSGVSITSGGNYWTWIRQFPGKGLEWIGYIDYSGSAFFNPSLKSRFAMSLDTSNNQFSLTVNSVTAADTAVYYCAREIRLLELQGNVFDTWGQGTMVTVSS
chain 2: DIQMTQSPSSLSASVGDRVTITCQASQDSTNCLNWYQQKPGKAPKLLIYDASNLGTGVPSRFSGRGSGTDFTLTISSLQPEDIATYYCQQYENLPYTFGQGTKLEIK
B6: B2053 (protein)
chain 1: VQLVESGGGVVQPGMSLRLSCTASGFTFSNYAVHWVRQAPGKGLEWVAIVSNDGKIKFYADSVKDRFTISRDNSKNTLFLQMNGLRSDDTAVYYCARDREELSYWSLDYWGQGTLVTVSS
chain 2: DIQMTQSPSSLSASVGDRVTVTCRASQSIRTYLNWYQQKPGKAPKLLIYAASNLQSGVPSRFSGSGSGTDFTLTISSLQREDFATYFCQQSYSTPPLTFGGGTRVEIK
B7: B2054 (protein)
chain 1: VQLVESGGGVVQPGRSLRLSCAASGFTFRTYAMHWVRQAPGKGPEWLAVISDDGSIKYYADSVQGRFTISRDNSESTLYLQLNSLRAEDTAVYYCATEGMTGLVIYFDFWGQGTLVTVSS
chain 2: DIQLTQSPSSLSASVGDRVTLTCRASQSIGNYLNWYQQKPGKAPKLLIYAASSLQSGVPSRFSGSGSGTDFTLTISSLQPEDFATYYCQQSYSTSEYTFGQGTKLEIK

The target in one assay is SARS-CoV-2 Wuhan-Hu-1 spike pseudovirus. As to the kind of experiment: pseudovirus neutralization IC50; higher = weaker neutralization. Here is the method:
(§1)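 Single-round luciferase reporter pseudovirus mixed with antibody dilutions and put on 293T-ACE2 cells for 48 h; signal relative to no-antibody wells, four-parameter fit.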
Consider B1, for which the “pseudovirus neutralization IC50” value is greater than 1 µg/mL.
The same measure, in the same setting: under B2 stands greater than 1 µg/mL; under B3, 0.0257 µg/mL.
In the case of B4, the “pseudovirus neutralization IC50” value amounted to 0.00856 µg/mL.
On the same count and under the same terms, under B5 stands 0.00351 µg/mL; under B6, 0.213 µg/mL; under B7, greater than 1 µg/mL.

A further assay shares this target. Description: pseudovirus neutralization IC90; higher = weaker neutralization. Here is the method:
as §1
In the case of B1, the “pseudovirus neutralization IC90” value was greater than 1 µg/mL.
Turning to B2, the “pseudovirus neutralization IC90” value is greater than 1 µg/mL.
As for B3, the “pseudovirus neutralization IC90” value amounted to 0.341 µg/mL.
Take B4: the “pseudovirus neutralization IC90” value amounted to 0.0619 µg/mL.
Take B5: the “pseudovirus neutralization IC90” value was found to be 0.0204 µg/mL.
On to B6, for which the “pseudovirus neutralization IC90” value was greater than 1 µg/mL.
The same measure, in the same setting: under B7 stands greater than 1 µg/mL.

The next assay concerns the target SARS-CoV-2 Delta (B.1.617.2) spike RBD. Description: ELISA binding EC50; higher = weaker binding; ELISA of recombinant human antibody on coated antigen, from 10 µg/ml in fourfold dilutions; four-parameter fit. (In general: ELISA stands for enzyme-linked immunosorbent assay.)
As for B1, the “ELISA binding EC50” value amounted to 0.00958 µg/mL.
Consider B2, for which the “ELISA binding EC50” value amounted to 0.031 µg/mL.
As for B3, the “ELISA binding EC50” value worked out at 0.00845 µg/mL.
Take B4: the “ELISA binding EC50” value came to 0.0312 µg/mL.
In the case of B5, the “ELISA binding EC50” value turned out to be 0.0166 µg/mL.
As for B6, the “ELISA binding EC50” value came out at 0.0132 µg/mL.
Take B7: the “ELISA binding EC50” value turned out to be 0.00767 µg/mL.

Another assay concerns the target SARS-CoV-2 Omicron BA.1 spike protein. The description is as above.
In the case of B1, the “ELISA binding EC50” value was 0.0374 µg/mL.
Same read-out and setting: the value for B2 was 0.00746 µg/mL; that for B3 was 0.0225 µg/mL; that for B4 was greater than 1 µg/mL.
For the molecule B5, the “ELISA binding EC50” value is 0.023 µg/mL.
The same measure, in the same setting: under B6 stands 0.00793 µg/mL; under B7, 0.0423 µg/mL.

For another assay, the target named is SARS-CoV-2 Wuhan-Hu-1 spike receptor-binding domain. Described as above.
As to B1, the “ELISA binding EC50” value worked out at 0.0028 µg/mL.
Consider B2, for which the “ELISA binding EC50” value worked out at 0.00213 µg/mL.
Consider B3, for which the “ELISA binding EC50” value amounted to 0.00235 µg/mL.
Consider B4, for which the “ELISA binding EC50” value was 0.00253 µg/mL.
Regarding B5, the “ELISA binding EC50” value was 0.0025 µg/mL.
Same read-out and setting: the value for B6 was 0.00105 µg/mL; that for B7 was 0.00339 µg/mL.
